Reference: PubChem BioAssay AID1671193 (National Center for Advancing Translational Sciences (NCATS), 2021)
Values joined by “and” are separate entries in the source; they are usually repeats but may differ in a detail not shown here. Equal values may be shown once. Screen size: about 150,000 compounds; about 180 (0.12%) were called active. Inconclusive means that the source gave no clear call. Such entries were picked first, then a sample of the others. The call rests on the fitted dose curve; in most records, active means well fitted cell-killing curve with a large enough effect; inconclusive means small, poorly fitted or top-dose-only effect, or effect the other way; inactive means flat fitted curve, though single readings scatter. Where the call is inconclusive, the potency comes from a doubtful curve fit.

Assay: GF-AFC viability counterscreen for inhibitors of alpha-synuclein gene (SNCA) expression; further: nearly all actives have a fitted effect of over 30% in size;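 on activity change, negative = cytotoxicity: 0% = DMSO-treated cells and -100% = medium-only wells without cells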
Settings: HEK-293-SNCA-luc viability, GF-AFC fluorescence, 24 h; activity change, negative = cytotoxicity: at 57.1 µM (top of the series) unless noted
Procedure, shortened: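 HEK-293-SNCA-luc cells (1500/well) plated 24 h, then exposed 24 h to a dilution series; GF-AFC added 30 min at 37C, fluorescence 405/540 nm; normalised to medium-only and DMSO wells, Hill fit.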
Potency means the concentration at half of the fitted maximal effect; tags describe the fitted curve by direction and shape.

Row | Structure (SMILES) | activity change, negative = cytotoxicity | Potency
1 | CC(C)(C)NC(=O)NCc1nnc2n1C(C(=O)NCc1ccc(F)cc1)CC2 (stereo unspecified) | inactive: 2.03% [at 12.5 µM] | 
2 | O=C(NCCCc1ccccc1)c1nc2sccn2c1-c1ccc(C(F)(F)F)cc1 | inactive: -12.8% | 
3 | Cc1nn(CC(=O)N2CCCCCC2)c(=O)c2nc(-c3ccccc3)sc12 | inactive: -5.33% | 
4 | COc1ccc(-c2nc(C(C)C)nc3c2CCN(C(=O)NC2CCCC2)CC3)cc1 |  | inconclusive: 20 µM [cytotoxic, single point]
5 | CCc1nc2ccc(C(=O)N3CCN(c4cc(C)ccc4C)CC3)cc2nc1CC |  | inconclusive: 14.1 µM [cytotoxic, partial curve, poor fit]
6 | O=C(c1cnccn1)N1CCC(c2nc(C3CCOCC3)no2)CC1 |  | inconclusive: 39.8 µM [cytotoxic, single point]
7 | O=C(CCc1ccccc1)NCCn1cccc1-c1nc(-c2ccc3c(c2)OCO3)no1 |  | inconclusive: 31.6 µM [cytotoxic, single point]
8 | CC(C)c1ccccc1Cc1cc(C(=O)Nc2ccc(S(=O)(=O)c3ccccc3C(C)(C)C)cc2)c(O)c(O)c1O | inactive: 4.39% | 
9 | Cc1ccc(NC(=O)Cn2cc(C(=O)c3ccco3)c3ccccc32)cc1C |  | inconclusive: 39.8 µM [cytotoxic, single point]
10 | COc1ccccc1NC(=O)CSc1ccc(-c2ccccn2)nn1 |  | inconclusive: 39.8 µM [cytotoxic, single point]
11 | O=C(c1ccc(C2CCCNC2)cc1)N1CCC(Oc2cccc(F)c2)CC1 (stereo unspecified) |  | inconclusive: 39.8 µM [cytotoxic, single point]
12 | Clc1cccc(-c2nc3ccccn3c2Nc2ccc3c(c2)OCCO3)c1 | inactive: -7.67% | 
13 | CC1=C[C@@H](CNC(=O)C2CCCCC2)[C@H](C(C)C)C[C@H]1Cc1nc2ccc(C)cc2[nH]1 |  | inconclusive: 25.1 µM [cytotoxic, partial curve, poor fit]
14 | C[S+](=O)([O-])c1ccc(-c2cc3c(ccn3Cc3ccncc3)c(N3CCOCC3)n2)cc1 |  | inconclusive: 25.1 µM [rising, partial curve, poor fit]
15 | Cc1ccc2c(C(=O)N3CCN(CC(C)C)CC3)cc(NC(=O)C3CCC3)cc2n1 | inactive: 9.86% | 
16 | O=C(C1CCCN1c1nc2ncccc2o1)N1CCN(c2ncccn2)CC1 (stereo unspecified) |  | inconclusive: 7.08 µM [cytotoxic, single point]
17 | N#C/C(=C/c1ccccc1Cl)c1nc2ccccc2c(=O)[nH]1 | inactive: 1.8% | 
18 | CC(C)CN1C(=O)CO[C@H](c2ccc(NC(=O)c3ccc4c(c3)OCO4)cc2)[C@H]1CO | inactive: -6.87% [at 87.6 µM] | 
19 | CC1=C[C@@H](CNC(=O)CC2(CC(=O)O)CCCC2)[C@H](C(C)C)C[C@H]1Cc1nc2ccccc2n1C |  | inconclusive: 5.62 µM [cytotoxic, partial curve, poor fit]
20 | CCC(=O)N1CCc2cc(CNS(=O)(=O)c3ccc(C(C)C)cc3)ccc21 |  | inconclusive: 8.91 µM [rising, partial curve, poor fit]
21 | Cc1ccc(C2C=C(c3ccccc3)Nc3nc(NS(=O)(=O)c4ccc(C)cc4)nn32)cc1 (stereo unspecified) |  | inconclusive: 22.4 µM [rising, partial curve]

Row | Structure (SMILES) | activity change, negative = cytotoxicity | Potency
22 | CCOC(=O)c1cc2c(=O)n3ccccc3nc2n(Cc2ccco2)c1=NC(=O)c1cccc(C)c1 |  | inconclusive: 14.1 µM [rising, partial curve]
23 | CCCNC(=O)CSc1c2c(nc3ccc(Cl)cc13)CCCC2 |  | inconclusive: 39.8 µM [cytotoxic, single point]
24 | Cn1nccc1C(=O)N1CCC(Oc2ccccc2-c2nc(-c3ccccc3)no2)C1 (stereo unspecified) |  | inconclusive: 22.4 µM [cytotoxic, partial curve]
25 | O=C(Cc1ccc(F)cc1)N1CCC(C(=O)N2CCC(c3nc4ncccc4[nH]3)CC2)CC1 | inactive: 8.1% | 
26 | COc1ccc(CNC(=O)Cn2c(N3CCCCC3)nc(C)c(C)c2=O)cc1 | inactive: -0.693% | 
27 | Cn1nc(C2CCN(C(=O)c3ccc(CO)o3)CC2)n(-c2ccccc2)c1=O |  | inconclusive: 7.08 µM [cytotoxic, full curve, poor fit]
28 | NC(=O)Nc1cc(-c2cccc(F)c2)sc1C(=O)N[C@H]1CCCNC1 |  | inconclusive: 1.36 µM [cytotoxic, full curve, poor fit] and inconclusive: 844 nM [cytotoxic, partial curve, poor fit]
29 | O=C1CC(c2noc(-c3ccc4c(c3)OCO4)n2)CN1c1ccc(F)cc1 (stereo unspecified) |  | inconclusive: 8.91 µM [rising, single point]
30 | Cc1cc(NC(=O)C2CCN(C(=O)c3ncn4c3COC(c3ccc(F)cc3)C4)CC2)ccc1F (stereo unspecified) |  | inconclusive: 31.6 µM [cytotoxic, single point]
31 | CNC(=O)CCn1ncc2cc(OC3CCc4cccc(-c5cccnc5)c43)ccc21 (stereo unspecified) | inactive: -16.6% [at 87.6 µM] | 
32 | CCOC(=O)c1ccc(NC(=O)Cn2c(N3CCCCC3)nc(C)c(C)c2=O)cc1 |  | inconclusive: 5.01 µM [cytotoxic, full curve, poor fit]
33 | O=C(CCC1CCCC1)N1CC[C@@H]2COCCN(Cc3ccncc3)[C@@H]2C1 |  | inconclusive: 39.8 µM [cytotoxic, single point]
34 | Cc1[nH]c2ccccc2c1C1(O)C(=O)N(Cc2ccccc2)c2ccc(Cl)cc21 (stereo unspecified) |  | inconclusive: 25.1 µM [cytotoxic, single point]
35 | COc1ccccc1N1CCN(S(=O)(=O)c2ccc(F)c(C(=O)Nc3ccc(Cl)cc3C(F)(F)F)c2)CC1 | inactive: 6.65% | 
36 | CC1OC2OC3C(OCC(O)C3O)OC(=O)C34CCC(C)(C)CC3C3=CCC5C6(C)CC(O)C(OC7OC(CO)C(O)C(O)C7OC7OCC(OC(=O)CC(C)(O)CC(=O)OC1C(OC1OCC(O)C(O)C1O)C2O)C(O)C7O)C(C)(CO)C6CCC5(C)C3(C)CC4O (stereo unspecified) |  | active: 5.19 µM
37 | Cc1ccccc1S(=O)(=O)N1CCCC(CCC(=O)NC2CC2)C1 (stereo unspecified) | inactive: 5.38% | 
38 | COc1ccc(C(=O)N2CC[C@H](c3nnc(-c4ccccc4)o3)C2)cc1 |  | inconclusive: 31.6 µM [cytotoxic, single point]
39 | CCCCOc1ccccc1C1CC(=O)Nc2cc(C)c(C)cc21 (stereo unspecified) |  | inconclusive: 20 µM [cytotoxic, single point]
40 | CSc1ccc(CNC(=O)c2nnn3c2COC(c2ccc(F)cc2)C3)cc1 (stereo unspecified) | inactive: -3.96% | 
41 | Cc1nc2cc(-c3cccc(F)c3)nn2c(C)c1CCC(=O)NC(C)c1ccccc1 (stereo unspecified) |  | inconclusive: 39.8 µM [rising, single point]
42 | COc1ccc(Nc2oc(/C=C/c3ccccc3OC)nc2C#N)cc1 |  | inconclusive: 7.08 µM [rising, full curve, poor fit]

Row | Structure (SMILES) | activity change, negative = cytotoxicity | Potency
43 | Cc1ccccc1Nc1nc(N)c(C(=O)c2ccccc2Cl)s1 |  | inconclusive: 28.2 µM [cytotoxic, single point]
44 | O=C(C1CC1)N1CCC(Cc2noc(-c3ccncc3)n2)C1 (stereo unspecified) |  | inconclusive: 5.01 µM [cytotoxic, full curve, poor fit]
45 | Cc1ccc(N2C(=O)CSC23C(=O)N(CC(=O)NCc2ccccc2)c2ccccc23)cc1 (stereo unspecified) |  | inconclusive: 6.31 µM [rising, single point]
46 | Cc1ccc(N2CCN(C(=O)c3noc(-c4ccc5c(c4)OCO5)n3)CC2)c(C)c1 | inactive: 3.5% | 
47 | Cc1ccc(N2CC(NC(=O)c3cccs3)CC2=O)cc1 (stereo unspecified) | inactive: -6.77% | 
48 | c1ccc2sc([C@H]3CCN(Cc4ccc5c(c4)OCO5)C3)nc2c1 |  | inconclusive: 31.6 µM [cytotoxic, partial curve]
49 | Cc1cccc(C(=O)Nc2ccc3nc(SCC(=O)N4CCCC4)sc3c2)c1 |  | inconclusive: 39.8 µM [cytotoxic, single point]
50 | CCOc1ccc(OCC)c(NC(=O)CN(C)S(=O)(=O)c2ccc3[nH]c(=O)oc3c2)c1 |  | inconclusive: 20 µM [cytotoxic, partial curve, poor fit]
51 | Cc1ccc(NC(=O)c2nc(S(=O)(=O)Cc3ccc(F)cc3)ncc2Cl)cc1C |  | inconclusive: 31.6 µM [cytotoxic, single point]
52 | Cc1noc2c(NC3CCN(C)CC3)cc(-c3ccccc3)nc12 | inactive: -1.56% [at 87.6 µM] | 
53 | Cc1c(CN2CCN(C(=O)C(C)C)CC2)sc2c(N3CCOCC3)nc(-c3cnc(N)nc3)nc12 |  | inconclusive: 0.171 µM [cytotoxic, full curve, poor fit]
54 | Cc1ccc(NC(=O)Cn2nc(C)c3nn(-c4ccc(Cl)cc4)c(C)c3c2=O)cc1F |  | inconclusive: 1.58 µM [cytotoxic, full curve, poor fit]
55 | Fc1cc(Nc2cnc3ccc(-c4ccccc4)nn23)cc(N2CCOCC2)c1 | inactive: -22.3% [at 87.6 µM] | 
56 | Cc1ccc(NC(=O)O[C@@H]2CC[C@]3(C)[C@H](CC[C@H]4OC(=O)C[C@H]43)[C@]2(C)CO)cc1 | inactive: 1% [at 87.6 µM] | 
57 | O=C(NC1CC1)c1ccccc1OCC1CCCN(CC2=Cc3ccccc3OC2)C1 (stereo unspecified) |  | inconclusive: 7.94 µM [cytotoxic, partial curve]
58 | COc1ccc(C(=O)N[C@H]2C[C@@H](c3nc(-c4ccc(Cl)cc4)no3)N(C)C2)cc1 |  | inconclusive: 56.2 µM [cytotoxic, single point]
59 | O=C(Nc1cccc(C(F)(F)F)c1)O[C@@H]1CO[C@H]2[C@@H]1OC[C@@H]2Nc1nccc(-c2ccccc2)n1 |  | inconclusive: 22.4 µM [cytotoxic, partial curve, poor fit]
60 | N#Cc1cccc(NC(=O)Nc2ccc(=O)n3c2[C@@H]2C[C@@H](CN(C(=O)COc4ccccc4)C2)C3)c1 | inactive: -8.42% | 
61 | O=C(Cc1ccc(F)cc1)N1CCC2(CC1)CC(=O)N(c1ccccc1)c1ccccc1O2 |  | inconclusive: 25.1 µM [cytotoxic, partial curve, poor fit]
